Assay results reported in patent EP4681729A1.

target: cynomolgus monkey PD-1 antigen protein (Sino Biological, 90311-C08H) (cynomolgus monkey) (UniProt B0LAJ3); assay: SPR (Biacore 8k), antibody captured by anti-human IgG (Fc), PD-1 as analyte
Chain of UniProt B0LAJ3 (B0LAJ3 entry or part of it C08H C08H limits assumed, form in doubt): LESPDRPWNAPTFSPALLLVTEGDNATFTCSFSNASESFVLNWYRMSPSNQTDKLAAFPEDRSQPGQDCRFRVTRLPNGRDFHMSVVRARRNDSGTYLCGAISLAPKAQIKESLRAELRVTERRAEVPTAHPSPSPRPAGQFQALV

Row | Binder | Kd [nM] | koff [s⁻¹] | kon [M⁻¹ s⁻¹]
1 | A17h1_hIgG4 (Fc fusion) EVQLQESGGGLVQPGGSLRLSCTASGLTFSDYSMSWYRQAPGKGRELVAIISGSGVIAHYVDSVKGRFTISRDNSKNTVYLQMRSLTPEDRAVYYCRAVSDWDDYWGQGTQVTVSS[gap - human IgG4 Fc with S228P (EU numbers)] | 1.82 | 0.000807 | 444000
2 | A17m09_hIgG4 (Fc fusion) EVQLQESGGGLVQPGGSLRLSCTASGLTFSDYSMSWYRQAPGKGRELVAIISGSGVITHYVDSVKGRFTISRDNAKNTVYLQMRSLTPEDRAVYYCRAVSDWEDYWGQGTQVTVSS[gap - human IgG4 Fc with S228P (EU numbers)] | 1.75 | 0.000843 | 481000

Further lines, results first:

Row | Kd [nM] | koff [s⁻¹] | kon [M⁻¹ s⁻¹] | Binder
3 | 3.32 | 0.00113 | 340000 | A17m0901_hIgG4 (Fc fusion) VHH-Fc: EVQLVESGGGLVQPGGSLRLSCAASGFTFSDYSMSWYRQAPGKGRELVAIISGSGVITHYVDSVKGRFTISRDNAKNTLYLQMRSLRAEDTAVYYCRAVSDWEDYWGQGTQVTVSS[gap - human IgG4 Fc with S228P (EU numbers)]
4 | 3.28 | 0.00108 | 328000 | A17m0902_hIgG4 (Fc fusion) VHH-Fc: EVQLVESGGGLVQPGGSLRLSCAASGLTFSDYSMSWYRQAPGKGRELVAIISGSGVITHYVDSVKGRFTISRDNAKNTLYLQMRSLRAEDTAVYYCRAVSDWEDYWGQGTQVTVSS[gap - human IgG4 Fc with S228P (EU numbers)]
